Where a name gives a salt, the structure may show the parent alone. The list shows a part of the results.
Test system: Schistosoma mansoni schistosomula
Assay: phenotypic hit in primary schistosomula screen (any phenotype vs DMSO control) (binary (1 = hit, 0 = no phenotype)); higher = active (phenotype induced)
Details: 1 µM; time (d): 7

SMILES	phenotypic hit
CNC(=O)Oc1cccc2c1OC(C)(C)O2 [bendiocarb]	inactive: 0
CC(=O)OC1CCC23C(=O)OC45CCC(C6=CC(=O)OC6)C4(C)CCC2C5CCC3(O)C1 (configuration not stated) [strophanthidinic acid lactone acetate]	inactive: 0
CCCCN(CC)c1c([N+](=O)[O-])cc(C(F)(F)F)cc1[N+](=O)[O-] [benfluralin]	inactive: 0
NC(=O)CN1CCCC1=O [piracetam]	inactive: 0
CC1(C)C(O)CC(O)C2(C)C1CC(O)C1(C)C2CCC2(C)C(c3ccoc3)CC3OC321 (configuration not stated) [havanensin]	inactive: 0
CC(=O)Oc1ccc(Cl)c2cccnc12 [chloroacetoxyquinoline]	inactive: 0
C=C(C)[C@@H]1[C@H]2OC(=O)[C@@H]1[C@]1(O)C[C@H]3O[C@]34C(=O)O[C@H]2[C@]14C [picrotoxinin]	inactive: 0
Oc1ccc(Cl)cc1 [parachlorophenol]	inactive: 0
CC1C[C@H]2CC(=O)[C@H]3CCCN4CCC[C@H]2[C@]34C1.[O-][Cl+3]([O-])([O-])O (some centres not stated) [lycopodine perchlorate]	inactive: 0
COc1cc([C@@H]2c3cc4c(c(O)c3C[C@H]3COC(=O)[C@@H]32)OCO4)cc(OC)c1OC [beta-peltatin]	inactive: 0
CC(=O)c1c(O)c(C)c(O)c2c1oc1c(C(C)=O)c(O)c(C)c(O)c12 [diacetyldideisovaleryl-rhodomyrtoxin]	inactive: 0
C[C@]12CC[C@H](O)C[C@H]1CC[C@@H]1[C@@H]2[C@H](O)C[C@]2(C)[C@@H](C3=CC(=O)OC3)CC[C@]12O [sarmentogenin]	inactive: 0
COc1cc2c(cc1OC)[C@@H]1C(=O)c3ccc4oc(C(C)C)cc4c3O[C@@H]1CO2 [isorotenone]	active: 1
C[N+]12CCC(CC1)C(OC(=O)C(O)(c1ccccc1)c1ccccc1)C2 (configuration not stated) [clidinium bromide]	inactive: 0
COC[C@]12CN(C=O)[C@@H]3[C@@H]4[C@H](OC)[C@H]1[C@@]3([C@@H](OC)C[C@H]2O)[C@@H]1C[C@@]2(O)[C@H](OC(=O)c3ccccc3)[C@@H]1[C@]4(OC(C)=O)[C@@H](O)[C@@H]2OC [oxonitine]	inactive: 0
CC(C)=CCCC1(C)C=Cc2c(O)c3c(c(CC=C(C)C)c2O1)OC12C(=CC4CC1C(C)(C)OC2(C/C=C(/C)C(=O)O)C4O)C3=O (configuration not stated) [dihydrogambogic acid]	active: 1
C[C@H]1C(=O)O[C@@H]2CCN3CC=C(COC(=O)[C@](C)(O)[C@]1(C)O)[C@H]23 [monocrotaline]	inactive: 0
CO[C@]12C[C@@H](COC(=O)c3cncc(Br)c3)CN(C)[C@@H]1Cc1cn(C)c3cccc2c13 [nicergoline]	inactive: 0
C/C=C(/C)C(=O)O[C@H]1CC[C@@]2(C)[C@@H]3CC[C@H]4[C@]5(O)C[C@H](O)[C@@]6(O)[C@@H](CN7C[C@@H](C)CC[C@H]7[C@@]6(C)O)[C@]5(O)C[C@]42O[C@]13O [veratrine]	inactive: 0
O=C(O)COc1cc(Cl)c(Cl)cc1Cl [2,4,5-trichlorophenoxyacetic acid]	inactive: 0
CN(C)C(=S)SSC(=S)N(C)C [thiram]	active: 1

SMILES	phenotypic hit
O=C1NC(=O)C(=O)C(=O)N1 [alloxan]	inactive: 0
CC(C)(C)NCC(O)c1ccccc1Cl (configuration not stated) [tulobuterol]	inactive: 0
Cc1ccc(O)cc1.Cc1cccc(O)c1.Cc1ccccc1O [cresol]	inactive: 0
CC[C@H]1[C@@H]2C[C@H]3[C@@H]4N(C)c5ccccc5[C@]45C[C@@H]([C@@H]2[C@H]5O)N3[C@@H]1O [ajmaline]	inactive: 0
C[C@@H]1CC[C@H]2[C@@H](C)C(=O)O[C@@H]3O[C@@]4(C)CC[C@@H]1[C@]32OO4 [artemisinin]	inactive: 0
CC[C@H]1CN2CCc3cc(OC)c(OC)cc3[C@@H]2C[C@@H]1C[C@H]1NCCc2cc(OC)c(OC)cc21 [emetine]	inactive: 0
CNC(C)C(O)c1ccccc1 (configuration not stated) [racephedrine hydrochloride]	inactive: 0
COc1ccc(C(=O)O[C@H]2CC[C@@]3(C)[C@@H]4CC[C@H]5[C@]6(O)C[C@H](O)[C@@]7(O)[C@@H](CN8C[C@@H](C)CC[C@H]8[C@@]7(C)O)[C@]6(O)C[C@@]53O[C@]24O)cc1OC [veratridine]	inactive: 0
CO[C@H]1[C@H](O)[C@H](O[C@H]2CC[C@@]3(C)[C@H](CC[C@@H]4[C@@H]3CC[C@]3(C)[C@@H](C5=CC(=O)OC5)CC[C@]43O)C2)O[C@@H](C)[C@@H]1O [neriifolin]	inactive: 0
COc1cc([C@@H]2c3cc4c(cc3[C@H](O)[C@H]3COC(=O)[C@H]23)OCO4)cc(OC)c1OC [podofilox]	active: 1
CNC(C)[C@H](O)c1ccccc1 (some centres not stated) [ephedrine (1r,2s) hydrochloride]	inactive: 0
COc1ccc(C[C@H]2NC[C@H](O)[C@H]2OC(C)=O)cc1 [anisomycin]	active: 1
CN1[C@@H]2C[C@@H]3C[C@H]1[C@H](O)[C@H]2O3 [scopoline]	inactive: 0
CC(C)N(C(=O)SCC(Cl)=C(Cl)Cl)C(C)C [triallate]	inactive: 0
COc1ccc2c(c1)[nH]c1c(C)nccc12 [harmine]	inactive: 0
CCc1cccc(C)c1N(C(=O)CCl)C(C)COC (configuration not stated) [metolachlor]	active: 1
O=C1c2ccccc2C(=O)c2ccccc21 [anthraquinone]	inactive: 0
Oc1c(Cl)c(Cl)c(Cl)c(Cl)c1Cl [pentachlorophenol]	inactive: 0
CNC(=O)Oc1ccc2c(c1)[C@]1(C)CCN(C)[C@@H]1N2C [(-)-Physostigmine]	active: 1
CN1[C@H]2C[C@H](OC(=O)[C@H](CO)c3ccccc3)C[C@@H]1[C@@H](O)C2 [anisodamine]	inactive: 0
CN(C)C(=O)Oc1cccc([N+](C)(C)C)c1 [Neostigmine bromide]	active: 1
